The campaign covered roughly 2,700 compounds. About 160 (5.9%) showed an effect of 50% or more. Some of the results follow.

The record followed here is ChEMBL document CHEMBL5606458, “ASAP - ZIKV NS2B-NS3 protease fluorescence single point” (2024).

This test has as its target Nonstructural protein 3 (Zika virus) (UniProt A0A024AXB9).
The mark [1] stands for this setting: PRVABC59, Concentration 15.0 uM, Number of replicates 1.0.
Where [2] appears, read: PRVABC59, Concentration 50.0 uM, Number of replicates 1.0.

Chain of UniProt A0A024AXB9 (A0A024AXB9 as listed by the source): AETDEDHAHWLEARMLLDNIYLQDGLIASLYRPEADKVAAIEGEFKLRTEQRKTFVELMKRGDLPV

For the molecule `NC(=O)c1cccc(NC(=O)[C@@H](NC(=O)OCc2ccccc2)c2ccc(OCc3ccccc3)cc2)c1`, the inhibition (commonly the drop in the measured response relative to a control, in per cent) (PRVABC59, Concentration 49.5 uM, Number of replicates 2.0, Standard deviation 2.723334632333852 %) was determined as 2.73%; the inhibition (PRVABC59, Concentration 99.01 uM, Number of replicates 2.0, Standard deviation 2.0062374464699793 %) amounted to 1.09%; the inhibition (PRVABC59, Concentration 198.0 uM, Number of replicates 2.0, Standard deviation 2.561936647709264 %) was -1.81%.
For `Cc1cc(CO)c2cccc(Cc3ccccc3C(=O)N3CC4(CCCOC4)C3)c2n1`, the inhibition (PRVABC59, Concentration 49.95 uM, Number of replicates 2.0, Standard deviation 0.11535626154910505 %) is -6.69%.
With `CNC(=O)[C@H]1CCCN1S(=O)(=O)c1ccc(Oc2ccccc2Cl)cc1`, the inhibition reads like this: (PRVABC59, Concentration 49.5 uM, Number of replicates 2.0, Standard deviation 3.1007059656639053 %) -3.34%; (PRVABC59, Concentration 99.01 uM, Number of replicates 2.0, Standard deviation 2.6505010954273733 %) -1.74%; (PRVABC59, Concentration 198.0 uM, Number of replicates 2.0, Standard deviation 1.9572281637908444 %) 2.36%.
Turning to `O=C(Nc1c(Cl)cncc1Cl)c1cc(Cl)ccc1NS(=O)(=O)c1ccc(Oc2ccccc2Cl)cc1`, the inhibition under setting [1] came to 22%.
On to `Cc1nc2ccccc2n1C1CCN(C(=O)c2ccc3c(c2)B(O)OC3)CC1`, for which the inhibition reads like this: (PRVABC59, Concentration 49.5 uM, Number of replicates 2.0, Standard deviation 1.393997531456905 %) -0.146%; (PRVABC59, Concentration 99.01 uM, Number of replicates 2.0, Standard deviation 2.2888071148012052 %) 0.882%; (PRVABC59, Concentration 198.0 uM, Number of replicates 2.0, Standard deviation 2.2805219716146308 %) 4.41%.
In the case of `O=C(c1cc(Cl)ccc1NS(=O)(=O)c1ccc(Oc2ccccc2Cl)cc1)N1CCN(CC(F)(F)F)CC1`, under setting [1], the inhibition turned out to be 4.66%.
As to `c1ccc(CN2CC[C@H](c3c[nH]c4ccccc34)C2)nc1`, the inhibition reads like this: (PRVABC59, Concentration 49.5 uM, Number of replicates 2.0, Standard deviation 0.34862524389059196 %) 3.08%; (PRVABC59, Concentration 99.01 uM, Number of replicates 2.0, Standard deviation 1.827718653336993 %) 6.21%; (PRVABC59, Concentration 198.0 uM, Number of replicates 2.0, Standard deviation 3.724650524123788 %) 13.2%.
In the case of `COc1ccc(-c2ccccc2C(=O)Nc2cnn(C)c2)cc1F`, the inhibition is -7.9% (PRVABC59, Concentration 49.5 uM, Number of replicates 2.0, Standard deviation 0.9645356857936312 %); -6.85% (PRVABC59, Concentration 99.01 uM, Number of replicates 2.0, Standard deviation 1.6719900941866965 %); -3.37% (PRVABC59, Concentration 198.0 uM, Number of replicates 2.0, Standard deviation 2.864611711479339 %).
Turning to `O=C(NCCO)C1CCN(C(=O)c2cc(Cl)ccc2NS(=O)(=O)c2ccc(Oc3ccccc3Cl)cc2)CC1`, under setting [1], the inhibition is -1.93%.
The same measure, in the same setting: the same measure for `O=C(Nc1cccc(Br)n1)c1cc(Cl)ccc1NS(=O)(=O)c1ccc(Oc2ccccc2Cl)cc1`: 28.2%.
For `O=Cc1ccc(N2CCC(C(=O)N3CCN(S(=O)(=O)N4CCOCC4)CC3)CC2)cc1`, under setting [2], the inhibition was 23.9%.
For the molecule `O=C(c1cc(Cl)ccc1NS(=O)(=O)c1ccc(Oc2ccccc2Cl)cc1)N(Cc1ccco1)Cc1cccs1`, the inhibition under setting [1] came out at 13.2%.
In the case of `CCCOc1ccc(NC(=O)c2cc(Cl)ccc2NS(=O)(=O)c2ccc(Oc3ccccc3Cl)cc2)cc1`, the inhibition under setting [1] is 43.9%.
`NC(=O)[C@H](Cc1ccc(O)cc1)NC(=O)c1cc(Cl)ccc1NS(=O)(=O)c1ccc(Oc2ccccc2Cl)cc1`: the inhibition under setting [1] was found to be 4.46%.
For `O=C(NCC1CCC(C(F)(F)F)CC1)c1cc(Cl)ccc1NS(=O)(=O)c1ccc(Oc2ccccc2Cl)cc1` (stereo not given), under setting [1], the inhibition worked out at 31.2%.
Turning to `O=Cc1ccc(N2CCC(C(=O)N3CCC(c4noc5ccc(F)cc45)CC3)CC2)cc1`, the inhibition under setting [2] was 7.26%.
Consider `O=Cc1ccc(N2CCC(C(=O)N3CCC(c4nnc5n4CCCCC5)CC3)CC2)cc1`, for which, under setting [2], the inhibition came to 20.7%.
The same measure, in the same setting: the same measure for `O=Cc1ccc(N2CCC(C(=O)N3CCN(C(=O)OCc4ccccc4)CC3)CC2)cc1`: 22.1%; for `CCOc1ccc(CCNC(=O)C2CCN(c3ccc(C=O)cc3)CC2)cc1OC`: 25.2%.
Take `CC(C)Cn1cccc(C(=O)Nc2ccncc2C2CC2)c1=O`: the inhibition by setting is: (PRVABC59, Concentration 49.5 uM, Number of replicates 2.0, Standard deviation 1.782572076640321 %) 1.22%; (PRVABC59, Concentration 99.01 uM, Number of replicates 2.0, Standard deviation 2.7801764853402515 %) 0.021%.
Regarding `O=C(c1cc(Cl)ccc1NS(=O)(=O)c1ccc(Oc2ccccc2Cl)cc1)N1CCN(CCc2cccs2)CC1`, the inhibition under setting [1] came out at 13.3%.
With `Cn1cc(NC(=O)c2ccccc2C(F)(F)F)c(C=Cc2cc(F)cc(F)c2)n1`, the inhibition (PRVABC59, Concentration 49.5 uM, Number of replicates 2.0, Standard deviation 0.37053351292134273 %) was -8.84%.
For `COCCOCCOCCNC(=O)C1CCN(c2ccc(C=O)cc2)CC1`, under setting [2], the inhibition turned out to be 19.5%.
As for `CNC(=O)c1cccc(CCC(=O)Nc2cc(Cl)cc(C(=O)NC(C)(C)CO)c2)c1`, the inhibition runs as follows: (PRVABC59, Concentration 49.5 uM, Number of replicates 2.0, Standard deviation 2.0103235412862617 %) -0.511%; (PRVABC59, Concentration 99.01 uM, Number of replicates 2.0, Standard deviation 1.7876352618456317 %) 1.07%; (PRVABC59, Concentration 198.0 uM, Number of replicates 2.0, Standard deviation 1.8938720095849042 %) 2.74%.
As for `Cc1nnc(Cn2cc(C3CCNCC3)c(C)n2)s1`, the inhibition by setting is: (PRVABC59, Concentration 49.5 uM, Number of replicates 2.0, Standard deviation 1.0377307689033486 %) -2.31%; (PRVABC59, Concentration 99.01 uM, Number of replicates 2.0, Standard deviation 0.8554546685193132 %) -2.22%; (PRVABC59, Concentration 198.0 uM, Number of replicates 2.0, Standard deviation 2.3426614305977584 %) -2.93%.
As to `Cc1cc(CO)c2cccc(Cc3ccccc3C(=O)Nc3nonc3C(N)=O)c2n1`, the inhibition reads like this: (PRVABC59, Concentration 49.95 uM, Number of replicates 2.0, Standard deviation 0.12584307180819165 %) -4.45%; (PRVABC59, Concentration 99.9 uM, Number of replicates 2.0, Standard deviation 0.39850300453014226 %) -1.53%.
On to `O=C(N[C@H]1CCc2ccccc2NC1=O)c1cc(Cl)ccc1NS(=O)(=O)c1ccc(Oc2ccccc2Cl)cc1`, for which the inhibition under setting [1] stood at 27.7%.
On to `O=Cc1ccc(N2CCC(C(=O)NCc3ccc([N+](=O)[O-])cc3)CC2)cc1`, for which the inhibition (PRVABC59, Concentration 10.0 uM, Number of replicates 1.0) came to 12.3%.
For the molecule `C[C@H]1c2cc(O)c(O)cc2CCN1C(=O)c1cc(Cl)ccc1NS(=O)(=O)c1ccc(Oc2ccccc2Cl)cc1`, the inhibition under setting [1] came out at 32.3%.
Take `Cc1nc([C@H]2CCCNC2)[nH]c1C(=O)N1CCO[C@H](c2ccccc2)C1`: the inhibition (PRVABC59, Concentration 49.5 uM, Number of replicates 2.0, Standard deviation 0.6026884486895654 %) is -0.605%; the inhibition (PRVABC59, Concentration 99.01 uM, Number of replicates 2.0, Standard deviation 0.7048390067821461 %) worked out at 0.943%; the inhibition (PRVABC59, Concentration 198.0 uM, Number of replicates 2.0, Standard deviation 0.8764519755663496 %) turned out to be 3.13%.
Regarding `O=C(c1cc(Cl)ccc1NS(=O)(=O)c1ccc(Oc2ccccc2Cl)cc1)N1CCN(Cc2c(F)cccc2Cl)CC1`, the inhibition under setting [1] was 14.4%.
In the case of `O=Cc1ccc(N2CCC(C(=O)N3CCC(Oc4ncccn4)CC3)CC2)cc1`, under setting [2], the inhibition was 25.2%.
On to `CCn1ccnc(N[C@@H](Cc2c[nH]c3ccccc23)C(=O)OC)c1=O`, for which the inhibition (PRVABC59, Concentration 49.5 uM, Number of replicates 2.0, Standard deviation 1.8174652944718082 %) amounted to 0.373%; the inhibition (PRVABC59, Concentration 99.01 uM, Number of replicates 2.0, Standard deviation 2.0661171600233468 %) was 2.71%; the inhibition (PRVABC59, Concentration 198.0 uM, Number of replicates 2.0, Standard deviation 1.958453456970753 %) amounted to 6.79%.
As for `COc1ncc(NC(=O)C2CCN(c3ccc(C=O)cc3)CC2)cc1Br`, the inhibition under setting [2] turned out to be 14.4%.
As for `CNC(=O)c1cc(Cl)ccc1NS(=O)(=O)c1cccc(S(N)(=O)=O)c1`, the inhibition (PRVABC59, Concentration 49.5 uM, Number of replicates 2.0, Standard deviation 1.9770878431028747 %) was 2.91%; the inhibition (PRVABC59, Concentration 99.01 uM, Number of replicates 2.0, Standard deviation 3.7643425715900136 %) was 6.13%; the inhibition (PRVABC59, Concentration 198.0 uM, Number of replicates 2.0, Standard deviation 0.1353062194106457 %) was determined as 8.68%.
On to `Cc1cc(CO)c2cccc(Cc3cccc(NC(=O)C(=O)c4ccco4)c3)c2n1`, for which the inhibition reads like this: (PRVABC59, Concentration 49.95 uM, Number of replicates 2.0, Standard deviation 0.11706202880203795 %) -4.83%; (PRVABC59, Concentration 99.9 uM, Number of replicates 2.0, Standard deviation 0.9670358368472974 %) -5.47%.
`O=C(c1cc(Cl)ccc1NS(=O)(=O)c1ccc(Oc2ccccc2Cl)cc1)N1CCC(c2nc3ccccc3s2)CC1`: the inhibition under setting [1] was 30.2%.
Take `O=Cc1ccc(N2CCC(C(=O)Nc3ccc(F)cc3Br)CC2)cc1`: the inhibition under setting [2] worked out at 20.8%.
Turning to `N#Cc1ccc(C[C@H](NC(=O)c2ccccc2)C(=O)N2CCC[C@@H](CN)C2)cc1`, the inhibition (PRVABC59, Concentration 49.5 uM, Number of replicates 2.0, Standard deviation 1.3811454822062357 %) is -2.13%; the inhibition (PRVABC59, Concentration 99.01 uM, Number of replicates 2.0, Standard deviation 1.0154897083567558 %) is -2.19%; the inhibition (PRVABC59, Concentration 198.0 uM, Number of replicates 2.0, Standard deviation 0.42527358688620087 %) is -2.27%.
Turning to `CNC(=O)c1cc(Cl)ccc1NS(=O)(=O)c1[nH]ncc1C(=O)OC`, the inhibition is, setting by setting: (PRVABC59, Concentration 49.5 uM, Number of replicates 2.0, Standard deviation 0.699448193049936 %) -2.72%; (PRVABC59, Concentration 99.01 uM, Number of replicates 2.0, Standard deviation 0.3092514894243207 %) -1.35%; (PRVABC59, Concentration 198.0 uM, Number of replicates 2.0, Standard deviation 0.6268051493620144 %) -0.933%.
On to `Cn1cc(NC(=O)c2ccccc2C(F)(F)F)c(-c2cccc3cc[nH]c23)n1`, for which the inhibition reads like this: (PRVABC59, Concentration 49.5 uM, Number of replicates 2.0, Standard deviation 2.122471500433021 %) -1.02%; (PRVABC59, Concentration 99.01 uM, Number of replicates 2.0, Standard deviation 2.8581416433973104 %) 1.63%; (PRVABC59, Concentration 198.0 uM, Number of replicates 2.0, Standard deviation 2.3832837433043164 %) 4.85%.
